Drawing on the supplement of paper PMC4604168 (melanoma cell lines), this text covers cell count for 11 compounds.

Among the test systems are WM115; WM1716; WM1745; WM3526; WM3619; WM451Lu.
Assay in all cases: cell count relative to DMSO control; melanoma cells; higher = more viable cells
Holding throughout (conditions): library dose: low library concentration; 72 h

Some of the results follow. Most values come without repeats; read them as rough.
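Note: cell number obtained by counting DAPI-stained nuclei in high-throughput microscope images with image analysis software, screen run in 1,536-well plates.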

As to `COc1ccc(C2=N[C@@H](c3ccc(Cl)cc3)[C@@H](c3ccc(Cl)cc3)N2C(=O)N2CCNC(=O)C2)c(OC(C)C)c1` [Nutlin-3] + Oc1nc(-c2ccc(C(F)(F)F)cc2)nc2c1CSCC2 [XAV939] (first compound 0.1 µM, partner dose 2 µM), the cell count with WM115 was 85.2%; in the assay with WM1716 it was 65.4%; in the assay with WM1745 it was 87.4%; in the assay on WM3526 it was 102%; in the assay with WM3619, 64.4%; in the assay with WM451Lu, 106%.
Consider `Cn1c(=O)n(-c2ccc(C(C)(C)C#N)cc2)c2c3cc(-c4cnc5ccccc5c4)ccc3ncc21` + COc1ccc(-c2ccc3c(N4CCOCC4)nc(N4C[C@@H](C)O[C@@H](C)C4)nc3n2)cc1CO [KU0063794] (first compound 0.004 µM, partner dose 0.02 µM), for which the cell count came out at 81.3% with WM115; 68.8% in the assay on WM1716; 97.6% in the assay with WM1745; 99.1% in the assay with WM3526; 63% with WM3619; 90.7% in the assay with WM451Lu.
In the case of `Cc1cn(-c2cc(NC(=O)c3ccc(C)c(Nc4nccc(-c5cccnc5)n4)c3)cc(C(F)(F)F)c2)cn1` [nilotinib] + COc1ccc(C2=N[C@@H](c3ccc(Cl)cc3)[C@@H](c3ccc(Cl)cc3)N2C(=O)N2CCNC(=O)C2)c(OC(C)C)c1 [Nutlin-3] (first compound 0.2 µM, partner dose 0.1 µM), the cell count was 106% in the assay on WM115; 90.4% in the assay on WM1716; 94.3% in the assay on WM1745; 83.9% in the assay on WM3526; 97.4% with WM3619; 107% in the assay on WM451Lu.
`Cn1c(=O)n(-c2ccc(C(C)(C)C#N)cc2)c2c3cc(-c4cnc5ccccc5c4)ccc3ncc21` + N#Cc1c(O)c2c(-c3ccc(-c4ccccc4O)cc3)csc2[nH]c1=O [A769662] (first compound 0.004 µM, partner dose 2 µM): the cell count in the assay with WM115 was 99.8%; with WM1716, 99.7%; with WM1745 it was 109%; in the assay on WM3526 it was 53.5%; with WM3619, 79.1%; in the assay on WM451Lu it was 53.5%.
In the case of `Cc1cc(Nc2cc(N3CCN(C)CC3)nc(/C=C/c3ccccc3)n2)n[nH]1` + OCCn1cc(-c2cnc3nnn(Cc4ccc5ncccc5c4)c3n2)cn1 [PF04217903] (first compound 0.04 µM, partner dose 1 µM), the cell count with WM115 was 112%; in the assay on WM1716, 98%; with WM1745 it was 97%; in the assay with WM3526, 99.6%; in the assay with WM3619 it was 119%; in the assay with WM451Lu, 122%.
Consider `Cc1cn(-c2cc(NC(=O)c3ccc(C)c(Nc4nccc(-c5cccnc5)n4)c3)cc(C(F)(F)F)c2)cn1` [nilotinib] + Cn1cc(/C=C2\C(=O)Nc3cccnc32)c2ccccc21 [GW441756] (first compound 0.2 µM, partner dose 0.4 µM), for which the cell count in the assay on WM115 worked out at 99%; with WM1716, 104%; in the assay with WM1745, 95.3%; in the assay with WM3526 it was 99.3%; with WM3619 it was 88.1%; in the assay with WM451Lu it was 96.4%.
For the compound `Cc1cn(-c2cc(NC(=O)c3ccc(C)c(Nc4nccc(-c5cccnc5)n4)c3)cc(C(F)(F)F)c2)cn1` [nilotinib] + CCN(CC)CCNC(=O)c1c(C)[nH]c(/C=C2\C(=O)Nc3ccc(F)cc32)c1C [sunitinib] (first compound 0.2 µM, partner dose 0.4 µM), the cell count was determined as 108% in the assay with WM115; 131% in the assay on WM1716; 91.6% in the assay on WM1745; 102% in the assay on WM3526; 135% in the assay with WM3619; 105% in the assay with WM451Lu.
With `Cc1cn(-c2cc(NC(=O)c3ccc(C)c(Nc4nccc(-c5cccnc5)n4)c3)cc(C(F)(F)F)c2)cn1` [nilotinib] + C=CCn1c(=O)c2cnc(Nc3ccc(N4CCN(C)CC4)cc3)nc2n1-c1cccc(C(C)(C)O)n1 [MK1775] (first compound 0.2 µM, partner dose 0.02 µM), the cell count in the assay on WM115 was determined as 97.3%; in the assay on WM1716 it was 70.9%; in the assay with WM1745, 82.1%; with WM3526, 93.4%; in the assay with WM3619, 100%; with WM451Lu, 73.8%.
In the case of `CC(C)C[C@H](NC(=O)[C@H](Cc1ccccc1)NC(=O)c1cnccn1)B(O)O` [Bortezomib] + O=C(Nc1cccc(Cl)c1)Nc1ncc(CCNc2ncnc3ccsc23)s1 [SNS314] (first compound 0.001 µM, partner dose 0.0008 µM), the cell count in the assay with WM115 worked out at 74.5%; in the assay with WM1716, 31.8%; in the assay with WM1745, 59.8%; with WM3526, 75.2%; in the assay with WM3619, 33.1%; in the assay with WM451Lu it was 96.8%.
`COc1ccc(C2=N[C@@H](c3ccc(Cl)cc3)[C@@H](c3ccc(Cl)cc3)N2C(=O)N2CCNC(=O)C2)c(OC(C)C)c1` [Nutlin-3] + COc1ccc(COc2ccc(Cc3cnc(N)nc3N)cc2OC)cc1 [GW2580] (first compound 0.1 µM, partner dose 1 µM): the cell count in the assay with WM115 is 86.2%; in the assay on WM1716, 89.1%; in the assay on WM1745, 73.3%; with WM3526 it was 80%; in the assay on WM3619, 95.4%; in the assay on WM451Lu, 89.2%.
Consider `Cn1c(=O)n(-c2ccc(C(C)(C)C#N)cc2)c2c3cc(-c4cnc5ccccc5c4)ccc3ncc21` + CC(=O)c1c(C)c2cnc(Nc3ccc(N4CCNCC4)cn3)nc2n(C2CCCC2)c1=O [palbociclib] (first compound 0.004 µM, partner dose 0.04 µM), for which the cell count came to 81.5% with WM115; 72.4% with WM1716; 77% with WM1745; 64.7% in the assay with WM3526; 75.2% in the assay on WM3619; 90.4% with WM451Lu.
